{"source": "PubChem BioAssay AID434955", "about": "(Southern Research Specialized Biocontainment Screening …, 2010)", "note": "This is one part of the list. Shown are side measurements of this screen, not its main read-out; they come without a call. Compounds called inactive in the main read-out are mostly missing here.", "data": [{"assay": "beta-lactam sensitization of Mtb H37Rv, H37Rv (AID 434955);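 further: growth measured after seven days incubation then overnight dye step; 0% = bacteria only wells and 100% = bacteria with antibiotic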", "settings": "M. tuberculosis H37Rv growth with meropenem, percent inhibition; measured here: primary screen without meropenem; at 25 µM", "units": {"inhibition": "%"}, "values": [{"smiles": "NCC(c1ccc(Cl)cc1Cl)c1c[nH]c2ccccc12", "note": "(centres undefined)", "inhibition": 34.8}, {"smiles": "Cc1ccsc1/C=N/Nc1ncc(Cl)cc1Cl", "inhibition": 43}, {"smiles": "Cc1ccccc1/C=N/n1c(C2CCCCC2)n[nH]c1=S", "inhibition": 7.62}, {"smiles": "N#C/C(C(=O)NCc1ccco1)=C1/SC=C(c2ccccc2)N1c1ccccc1", "inhibition": -10.6}, {"smiles": "CC(C)(C)c1ccc(OCC(=O)NNC(=O)CCc2ccccc2)cc1", "inhibition": -5.36}, {"smiles": "Cc1nc2c(c(C)nn2-c2ccccc2)c(C)c1CCC(=O)NCCCOC(C)C", "inhibition": 2.12}, {"smiles": "Cc1ccccc1-n1c(O)c(C=Nc2ccc(N(C)C)cc2)c(=O)[nH]c1=O", "inhibition": -5.28}, {"smiles": "O=C(CSc1nnc(-c2ccoc2)o1)N1CCOCC1", "inhibition": -0.77}, {"smiles": "N/C(=N\\OC(=O)Oc1ccccc1)c1cccc([N+](=O)[O-])c1", "inhibition": -0.02}, {"smiles": "COc1cccc(C2c3c(oc4ccccc4c3=O)C(=O)N2c2ccccn2)c1", "note": "(centres undefined)", "inhibition": -2.73}, {"smiles": "COC(=O)c1cc(OC)c(OC)cc1NC(=O)Nc1ccccc1OC", "inhibition": -2.09}, {"smiles": "COCC1CCCCN1C(=O)c1ccc(OC2CCN(Cc3ccccn3)CC2)cc1", "note": "(centres undefined)", "inhibition": -0.49}, {"smiles": "COc1cc(/C=C/C(=O)OCC(=O)N(C)C2CCS(=O)(=O)C2)ccc1OC(F)F", "note": "(centres undefined)", "inhibition": 12.4}, {"smiles": "CC(C)[C@H](NC(=O)OC(C)(C)C)C(=O)N1CCC(C(=O)N[C@@H](C)C(=O)Nc2ccc(F)cc2)CC1", "inhibition": 5.9}, {"smiles": "COC(=O)Cc1cc(=O)n2[nH]c(C)nc2n1", "inhibition": -2.07}, {"smiles": "COc1ccc(-c2csc(NC(=O)c3c(C)noc3C)n2)cc1", "inhibition": 59.7}, {"smiles": "C[C@H]1CCC[C@@H](O)CCC/C=C/c2cc(O)cc(O)c2C(=O)O1", "inhibition": 3.39}, {"smiles": "COc1ccc(/C=N/NC(=O)c2c(Br)cnn2C)c2ccccc12", "inhibition": 1.7}, {"smiles": "C[C@]12CCC(=O)CC1CCC1C2CC[C@@]2(C)C1CC[C@@]21CCO1", "note": "(some centres undefined)", "inhibition": 0.8}, {"smiles": "CCOC(=O)c1sc2ccccc2c1NC(=O)c1coc2ccccc2c1=O", "inhibition": 33.7}, {"smiles": "CCCCCC(=O)NNC1=NCC(Cc2ccccc2)S1", "note": "(centres undefined)", "inhibition": 3.7}, {"smiles": "O=C(NCc1ccc2c(c1)OCO2)c1ccc(Cl)c(S(=O)(=O)NCc2ccccc2)c1", "inhibition": -9.89}, {"smiles": "O=C(NCc1ccc(F)c(F)c1)C1CCC(=O)N(CC2CCCCC2)C1", "note": "(centres undefined)", "inhibition": 3.56}, {"smiles": "O=C(CNC(=S)N(CCCN1CCOCC1)Cc1cccs1)NCCN1CCOCC1", "inhibition": -6.31}, {"smiles": "CCOC(=O)c1c(NC(=O)C(=O)N/N=C/c2ccccc2O)sc2c1CCCCC2", "inhibition": -7.54}, {"smiles": "CC1CCN(CCCNC(=O)c2ccc3c(=O)n(CCc4ccccc4)c(=O)[nH]c3c2)CC1", "inhibition": -6.92}, {"smiles": "CCc1ccc(CN(C)C(=O)C2CCC(=O)N(CCCN3CCCC3=O)C2)cc1", "note": "(centres undefined)", "inhibition": -8.18}, {"smiles": "COCCNC(=O)Cn1cc2c(n1)CCCCC2", "inhibition": -3.93}, {"smiles": "COc1ccc(C(=O)COC(=O)C(CC(C)C)N2C(=O)c3ccccc3C2=O)cc1", "note": "(centres undefined)", "inhibition": -8.04}, {"smiles": "CN1C(=O)C(C)(C)c2cc(S(=O)(=O)NCCc3ccc(Cl)cc3)ccc21", "inhibition": -3.5}, {"smiles": "CCCN1CCN(CCCNC(=O)CN2C(=O)c3cccnc3Oc3ccc(C)cc32)CC1", "inhibition": 4.33}, {"smiles": "CN1C(=O)C(C)(C)c2cc(S(=O)(=O)NCc3ccc(Cl)cc3)ccc21", "inhibition": 0.78}, {"smiles": "CC(C)(C)C1=Nn2c(nnc2-c2ccccc2F)SC1", "inhibition": 26.6}, {"smiles": "CCOC(=O)N1CCC(NC(=O)c2cc(COc3ccc(F)cc3Cl)on2)CC1", "inhibition": -13.5}, {"smiles": "CSCCC(NC(=O)CCC(=O)OC1CC[C@H]2[C@@H]3CC[C@H]4CC(=O)CC[C@]4(C)[C@H]3CC[C@]12C)C(=O)O", "note": "(some centres undefined)", "inhibition": 2.77}, {"smiles": "O=C(CSc1nnc(NC(=O)c2ccco2)s1)NC1CCCCC1", "inhibition": -2.64}, {"smiles": "CCOc1ccc(/C=C/C(=O)C(C(N)=O)=C2SCCS2)cc1", "inhibition": -3.28}, {"smiles": "CCN(CC)S(=O)(=O)c1ccc(N2CCOCC2)c(NC(=O)C2CSC3(C)CCC(=O)N23)c1", "note": "(centres undefined)", "inhibition": 0.15}, {"smiles": "O=C(NC(=S)Nc1ccc(N2CCCC2)cc1)c1ccc(F)cc1", "inhibition": 92.6}, {"smiles": "N/C(=N\\OC(=O)C1CCCCC1)c1cccc([N+](=O)[O-])c1", "inhibition": 92.7}, {"smiles": "COc1ccc(NC(=O)CSc2nncn2C)c([N+](=O)[O-])c1", "inhibition": 26.4}, {"smiles": "COC(=O)c1c(-c2ccncc2)csc1NC(=O)c1ccoc1C", "inhibition": 57.7}, {"smiles": "Clc1ccccc1/C=N/c1cc(-c2ccccc2)nn1-c1ccccc1", "inhibition": 2.62}, {"smiles": "CCc1cc(=O)[nH]c(SC/C=C/c2ccccc2)n1", "inhibition": -5.83}, {"smiles": "Cc1cccc(-n2ncc3c2CCCC3NC(=O)CCN2Cc3ccccc3C2=O)c1C", "note": "(centres undefined)", "inhibition": 1.54}, {"smiles": "CCOC(=O)c1ccccc1NC(=O)COC(=O)CN1C(=O)C2CC=CCC2C1=O", "note": "(centres undefined)", "inhibition": 3.44}, {"smiles": "CC(OC(=O)Cc1n[nH]c(=O)c2ccccc12)C(=O)Nc1ccc(Cl)cn1", "note": "(centres undefined)", "inhibition": -1.51}, {"smiles": "CCCC(=O)N(CCN1CCOCC1)c1nc2c(OCC)cccc2s1", "inhibition": 3.47}, {"smiles": "O=C(NCCOc1ccccc1F)c1cc([N+](=O)[O-])ccc1N1CCOCC1", "inhibition": -4.94}, {"smiles": "CN(/N=C/C=C/c1ccccc1)c1cc(=O)n(C)c(=O)[nH]1", "inhibition": -0.21}, {"smiles": "CCOCCCNC(=O)c1ccc(N(C)S(=O)(=O)c2ccc(OC)cc2)cc1", "inhibition": -3.48}, {"smiles": "COc1ccc(-c2nc(-c3cccc(C)c3)no2)cc1OC", "inhibition": 19.1}, {"smiles": "CCc1nc(N)c(C#N)c(-c2ccncc2)c1C", "inhibition": -2.29}, {"smiles": "CC(=O)N1CCC(C(=O)Nc2nc(-c3ccccc3)ns2)CC1", "inhibition": 1}, {"smiles": "C=CCn1c(SCc2nc3sc4c(c3c(=O)[nH]2)CCCC4)nc2ccccc2c1=O", "inhibition": 0.37}, {"smiles": "Cc1ccc(C(=O)N2CCN(c3ccccc3F)CC2)cc1NC1=NC2CS(=O)(=O)CC2S1", "note": "(centres undefined)", "inhibition": 7.84}, {"smiles": "O=C(CCN1c2ccccc2Sc2ccccc21)Oc1ccccc1", "inhibition": -3.35}, {"smiles": "COc1ccc(C)cc1NC(=O)C1CCCN(S(=O)(=O)c2cccc3cccnc23)C1", "note": "(centres undefined)", "inhibition": 3.04}, {"smiles": "O=C(Nc1cccc2ccccc12)c1ccc([N+](=O)[O-])s1", "inhibition": 8.42}, {"smiles": "COc1ccc(CNC(=O)C2CCC(=O)N(CCCN3CCCC3=O)C2)cc1", "note": "(centres undefined)", "inhibition": 3.13}, {"smiles": "S=C(Nc1ccccc1)Nc1ccc(Cl)cn1", "inhibition": 4.69}, {"smiles": "CCOC(=O)CSc1nnc(CNC(=O)c2ccc(OC)cc2)n1C1CCCCC1", "inhibition": -11.8}, {"smiles": "CN1CCN(c2ccc(NC(=O)c3ccc(-c4cccc([N+](=O)[O-])c4)o3)cc2)CC1", "inhibition": 0.14}, {"smiles": "O=C(CSc1nnc(CNC(=O)c2ccc(F)cc2)o1)NCc1ccccc1Cl", "inhibition": 1.92}, {"smiles": "CCn1cc(C2=NCC(C)O2)c2ccccc21", "note": "(centres undefined)", "inhibition": 3.01}, {"smiles": "N#Cc1ccc(COC(=O)c2ccc3c(=O)[nH]c(CN4CCOCC4)nc3c2)cc1", "inhibition": -9.6}, {"smiles": "O=S(=O)(c1ccc(Cl)cc1)c1nc(-c2ccccc2F)oc1NCCN1CCOCC1", "inhibition": 6.22}, {"smiles": "C=C(C)COc1ccc2c(C)c(C)c(=O)oc2c1OCC(=C)C", "inhibition": 36.9}, {"smiles": "Cc1ccc2c(c1)N(CC(=O)NCCc1ccc(Cl)cc1)C(=O)c1cccnc1O2", "inhibition": 3.74}, {"smiles": "CC(Oc1ncnc2ccccc12)C(=O)Nc1cccc(S(=O)(=O)N2CCOCC2)c1", "note": "(centres undefined)", "inhibition": -7.97}, {"smiles": "CCN(CC)S(=O)(=O)c1cc(C(=O)N=c2sccn2C)ccc1OC", "inhibition": -5.1}, {"smiles": "CC(C)OC(=O)CSc1nnc(Cc2ccccc2)n1Cc1ccco1", "inhibition": 2.33}, {"smiles": "O=C(CCc1nnc2ccc(NCc3ccc(Cl)cc3)nn12)NC1CCCCC1", "inhibition": 6.86}, {"smiles": "COc1cccc(C(=O)OCC(=O)NCCNC(=O)COC(=O)c2cccc(OC)c2OC)c1OC", "inhibition": -12.1}, {"smiles": "COc1ccc(C(=O)CN(C(=O)c2ccc(Cl)cc2)N2C(=O)c3ccccc3C2=O)cc1", "inhibition": 29.7}, {"smiles": "Cc1cccc(NC(=O)CSc2ccc3nnc(-c4cccnc4)n3n2)c1", "inhibition": -5.36}, {"smiles": "Cc1occc1C(=O)N1CCN(c2ccc(Cl)cc2)CC1", "inhibition": 14.3}, {"smiles": "CCOC(=O)CCC(=O)NCc1ccc2c(c1)cc(C)n2C", "inhibition": -4.57}, {"smiles": "COc1ccc(C(=O)Oc2ccc(/C=N/O)cc2)cc1", "inhibition": 0.87}, {"smiles": "CC(CNC(=O)CN1C(=O)c2cccnc2Oc2ccc(Cl)cc21)c1ccccc1", "note": "(centres undefined)", "inhibition": 2.62}, {"smiles": "COC(=O)c1cn(NC(=O)Cc2ccc(Cl)c(Cl)c2)c(=O)c2ccccc12", "inhibition": -7.09}, {"smiles": "O=C1OC(c2ccco2)=N/C1=C\\c1ccc(-c2cccc(C(F)(F)F)c2)o1", "inhibition": 49.4}, {"smiles": "CCC(C)c1ccccc1NS(=O)(=O)c1cnn(CC)c1", "note": "(centres undefined)", "inhibition": -1.37}, {"smiles": "Cc1ncc(CN2CCC(n3nccc3NC(=O)c3ccccc3)CC2)s1", "inhibition": -15.1}, {"smiles": "COc1ccc(OC)c(C2C(C(=O)c3ccco3)=C(O)C(=O)N2CCN2CCOCC2)c1", "note": "(centres undefined)", "inhibition": 1.66}, {"smiles": "CCCn1cc(CN2CCC(n3nccc3NC(=O)c3ccccc3)CC2)c(C)n1", "inhibition": -3.28}, {"smiles": "COc1ccc(/C=C2\\SC(=S)N(CCC(=O)NCCCn3ccnc3)C2=O)cc1", "inhibition": -2.44}, {"smiles": "O=C(C1=C(O)C(=O)N(CCCn2ccnc2)C1c1ccc(F)cc1)c1ccco1", "note": "(centres undefined)", "inhibition": -0.77}, {"smiles": "COc1cccc(-c2cccc(NC(=O)C3CCN(C4CCC4)CC3)c2)c1", "inhibition": -6.3}, {"smiles": "O=C(Nc1nc2ccc(F)cc2s1)c1cccc(S(=O)(=O)N2CCc3ccccc32)c1", "inhibition": 62}, {"smiles": "Cc1cc(N2CCN(C(=O)c3ccco3)CC2)n2nc(-c3cccc(F)c3)cc2n1", "inhibition": 0.82}, {"smiles": "COc1ccccc1N=c1oc2cc(O)ccc2cc1C(=O)NCC1CCCO1", "note": "(centres undefined)", "inhibition": -3.85}, {"smiles": "COc1ccc(-c2cc(C(F)(F)F)c(C#N)c(SCC(=O)Nc3nc(C)co3)n2)cc1", "inhibition": 1.86}, {"smiles": "CC(=O)c1cc(C(=O)N2CCCC(C(=O)c3ccc(Cl)cc3)C2)cs1", "note": "(centres undefined)", "inhibition": 2.84}, {"smiles": "CCc1nc(SCC(=O)Nc2ccccc2C)n[nH]1", "inhibition": 3.57}, {"smiles": "Cc1nc(-c2ccc(F)cc2)c(CC(=O)N2CCN(S(=O)(=O)c3ccc(F)cc3)CC2)s1", "inhibition": 4.34}, {"smiles": "COC(=O)CNC(c1ccccc1Cl)c1cc(Br)ccc1NC(=O)CCN1CCOCC1", "note": "(centres undefined)", "inhibition": 4.94}, {"smiles": "C/C(=N\\NC(=O)c1ccc(OC2CCCC2)cc1)c1ccc(O)cc1", "inhibition": 12.8}, {"smiles": "CCOc1cccc(-c2nnc(SCC(=O)NC3CC3)n2C)c1", "inhibition": 0.21}, {"smiles": "NS(=O)(=O)c1cccc(NC(=O)CCSc2ccc(Cl)cc2)c1", "inhibition": -10.9}, {"smiles": "COc1ccc(-n2ncc3c(=O)n(CC(=O)N4CCCc5ccccc54)cnc32)cc1", "inhibition": -0.52}, {"smiles": "CCCOP(=O)(c1ccc(N(C)C)cc1)C(O)c1c(Cl)cccc1Cl", "note": "(centres undefined)", "inhibition": 4.1}, {"smiles": "Nc1nc2n(n1)C(c1cccc(Br)c1)CC(c1ccc(F)cc1)N2", "note": "(centres undefined)", "inhibition": 1.63}, {"smiles": "CCC1CCCCN1CCCNC(=O)Cn1nc(C)n2nc(-c3ccccc3)cc2c1=O", "note": "(centres undefined)", "inhibition": 1.58}]}]}
